Reference: PubChem BioAssay AID485294 (National Center for Advancing Translational Sciences (NCATS), 2010)
About 150 (0.041%) of roughly 370,000 compounds were called active. The shares of active, inactive and inconclusive entries below differ from those in the screen. Calls follow the shape of the dose curve; as a rule, active = well fitted inhibition curve with a large enough effect; inconclusive = small, poorly fitted or top-dose-only effect; inactive = flat fitted curve, though single readings scatter. No potency is given beside an inconclusive call; the fits are too rough.

What follows are molecules tested against Beta-lactamase (Escherichia coli (strain K12)) (UniProt P00811) (assay: qHTS Inhibitors of AmpC Beta-Lactamase (assay with detergent)). Conditions: AmpC hydrolysis of nitrocefin, absorbance 480 nm, 0.01% Triton; activity change, negative = inhibition: at 114 µM (top of the series).
Sequence of UniProt P00811 (P00811 whole entry, looked up): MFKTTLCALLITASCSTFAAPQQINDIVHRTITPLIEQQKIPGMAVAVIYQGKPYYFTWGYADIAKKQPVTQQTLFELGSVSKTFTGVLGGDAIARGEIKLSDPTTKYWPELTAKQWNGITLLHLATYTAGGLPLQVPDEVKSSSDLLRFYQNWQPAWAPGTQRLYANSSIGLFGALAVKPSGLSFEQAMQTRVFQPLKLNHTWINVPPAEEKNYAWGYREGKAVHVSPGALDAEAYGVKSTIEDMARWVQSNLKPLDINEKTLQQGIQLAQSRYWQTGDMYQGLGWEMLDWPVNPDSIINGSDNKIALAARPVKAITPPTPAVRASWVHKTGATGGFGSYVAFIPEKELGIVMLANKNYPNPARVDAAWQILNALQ
Summary of the method: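 20 mM phosphate pH 7.0 + 0.01% (detergent screen) or 0.0001% Triton X-100; 5.3 nM AmpC reagent; cpd preinc 15 min RT; nitrocefin (800 uM stock) to start; A480 q20 s × 4 min; Activity was normalised to no-enzyme and no-compound control wells.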
Also: nearly all actives have a fitted effect of over 25% in size.
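For activity change, negative = inhibition in this document: 0% = no-compound wells and -100% = no-enzyme wells.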
Potency is read from the fitted curve at half-maximal effect; tags tell the direction and shape of the fitted curve.

Structure (SMILES) | Potency | activity change, negative = inhibition
CN(Cc1ccccc1)C(=O)COC(=O)c1cc(-c2ccc(Cl)s2)nc2ccccc12 | inconclusive [inhibitor, full curve, poor fit] | –
COc1cccc(-n2c(SCC(N)=O)nnc2-c2ccco2)c1 | – | inactive: -1.94%
COc1ccc(C(=O)Oc2coc(CSc3nnc(NC(=O)c4cccs4)s3)cc2=O)cc1 | inconclusive [inhibitor, full curve, poor fit] | –
Cc1ccc(NC(=O)c2ccc(S(=O)(=O)N3CCCC3)cc2)nc1 | inconclusive [inhibitor, single point] | –
Cn1c(SCCOc2ccccc2F)nc2ccccc2c1=O | inconclusive [inhibitor, partial curve, poor fit] | –
O=[N+]([O-])c1ccc(F)c(N=Cc2ccc(Br)s2)c1 | inconclusive [inhibitor, full curve, poor fit] | –
Cc1cc(OC(F)F)ccc1NC(=S)NCCc1ccccc1 | inconclusive [inhibitor, full curve, poor fit] | –
Cc1ccc(Cl)cc1NC(=O)N1CCC(CN2CCCCCC2)CC1 | – | inactive: 18.5%
O=C(CCSc1ccccc1)NC(=O)COC(=O)C1CCCCC1 | inconclusive [inhibitor, full curve, poor fit] | –
CC(=O)N1c2ccc(S(=O)(=O)N3CCCC(C(=O)N4CCCCC4)C3)cc2CC1C (stereo unspecified) | inconclusive [inhibitor, partial curve, poor fit] | –
CNC(=O)NC(=O)CSc1nc(-c2cccs2)c(C#N)c(=O)[nH]1 | – | inactive: 4.61%
CCOc1ccccc1-n1nnc(-c2nc(-c3ccccc3C)no2)c1C | – | inactive: 2.05%
COc1cccc(N2CCN(Cc3nc(N)nc(N4CCCc5ccccc54)n3)CC2)c1 | inconclusive [inhibitor, full curve] | –
Cc1ccc(N2CCN(C(=O)CCc3nc4ccccc4[nH]3)CC2)c(C)c1 | inconclusive [inhibitor, full curve, poor fit] | –
Cn1c(=O)c2c(nc(CN3CCC(C(N)=O)CC3)n2CCc2ccccc2)n(C)c1=O | inconclusive [inhibitor, full curve, poor fit] | –
O=C(COc1ccc(Br)cc1F)NC1CCN(Cc2ccccc2)CC1 | inconclusive [inhibitor, single point] | –
CCn1cc(C(=O)N2CCN(C(=O)c3ccco3)CC2)c2cc(OC)c(OC)cc2c1=O | inconclusive [inhibitor, full curve, poor fit] | –
O=C(OCCOc1cccc(Cl)c1)c1cc(S(=O)(=O)N2CCOCC2)ccc1F | – | inactive: -0.0278%
COC(=O)C1=C(c2ccc(F)cc2OCc2ccccc2)C[C@@H]2CC[C@H]1N2C(=O)NCc1cccc(C(F)(F)F)c1 | – | inactive: 10.9%
Cc1cc(C)cc(NC(=O)[C@@H](NC(=O)c2ccco2)C(C)C)c1 | inconclusive [inhibitor, partial curve, poor fit] | –
O=C(CNc1cccc([N+](=O)[O-])c1)N/N=C/c1ccc([N+](=O)[O-])o1 | – | inactive: -7.79%

Structure (SMILES) | Potency | activity change, negative = inhibition
Cc1cccc(NC(=S)Nc2cccc3ccccc23)c1 | – | inactive: -9.18%
CCN1C(=O)[C@H]2[C@@H](c3ccc(C)cc3)N3C(=O)N(c4cccc(Cl)c4)C(=O)[C@@]3(CC(C)C)[C@H]2C1=O | inconclusive [inhibitor, full curve, poor fit] | –
c1ccc(Cn2cc(CSc3ccccc3)nn2)cc1 | – | inactive: 3.42%
O=C1/C(=C/c2cccs2)Sc2ccccc21 | inconclusive [inhibitor, partial curve] | –
O=C(CCn1c(=O)[nH]c2ccsc2c1=O)N1CC(=O)N(CCc2ccccc2)C(=O)C1 | inconclusive [inhibitor, partial curve] | –
CC(=O)C1C(=O)CC(C)(O)C(C(C)=O)C1c1ccc(N(C)C)cc1 (stereo unspecified) | inconclusive [inhibitor, full curve, poor fit] | –
COc1cccc(-c2nc(CS(=O)(=O)CC(=O)NC3CCCCCC3)c(C)o2)c1 | inconclusive [inhibitor, full curve, poor fit] | –
Cc1noc(C)c1CSc1cc(C)c2ccccc2n1 | inconclusive [inhibitor, full curve, poor fit] | –
C/C(=N\NC(=O)c1cccc(S(=O)(=O)N2CCCC2)c1)c1ccc(F)cc1 | inconclusive [inhibitor, full curve, poor fit] | –
Cc1cc(NC(=O)CS(=O)(=O)Cc2ccccc2)no1 | inconclusive [inhibitor, single point] | –
CC(C)(CO)Cc1cc(C(C)(C)C)c(O)c(C(C)(C)C)c1 | inconclusive [inhibitor, full curve] | –
CCOc1ccc(NC(=O)CSc2nc3[nH]ncc3c(=O)[nH]2)cc1 | inconclusive [inhibitor, full curve, poor fit] | –
Cn1c(CSc2nc3ccccc3s2)nnc1SCC(=O)NCCN1CCOCC1 | inconclusive [inhibitor, full curve, poor fit] | –
COc1ccc(/C(N)=N/OC(=O)c2ccc(C)c([N+](=O)[O-])c2)cc1OC | inconclusive [inhibitor, single point] | –
O=C(c1cccc(C(F)(F)F)c1)C1CCCN(C(=O)/C=C/c2cnc[nH]2)C1 (stereo unspecified) | inconclusive [inhibitor, single point] | –
Cn1c(=O)c2c(nc(Sc3ncccn3)n2Cc2ccc(Cl)cc2)n(C)c1=O | – | inactive: -14%
C=CCn1c(-c2ccc(Cl)cc2)c[nH]c1=S | inconclusive [inhibitor, full curve, poor fit] | –
CN(C)S(=O)(=O)c1cccc(C(=O)NCC2CCCCC2)c1 | – | inactive: -5.33%
C#CCN(C)CCCOc1ccc(Cl)cc1Cl | inconclusive [inhibitor, full curve, poor fit] | –
COCCN1CC(O)=C(c2nc3ccccc3c(=O)[nH]2)C1=N | inconclusive [inhibitor, full curve, poor fit] | –
